# Measurements from the antibiotic and cytotoxicity screens of Wong et al. (2023).
# This is one part of the list.
# Assays:
# HSkMC = human skeletal muscle cells; assay: cytotoxicity call (relative viability < 0.9); settings: 10 µM
# HepG2 = assay: cytotoxicity call (relative viability < 0.9); settings: 10 µM
# S. aureus RN4220 = assay: growth inhibition call (relative growth <= 0.2); settings: 50 µM
SMILES,cytotoxicity call (HSkMC),cytotoxicity call (HepG2),growth inhibition call (S. aureus RN4220)
Cc1noc(C)c1NC(=O)N1C[C@H](O)COC[C@@H]2O[C@H](CC(=O)N[C@H]3CCN(Cc4ccccc4)C3)CC[C@H]21,inactive,inactive,inactive
COC(=O)C1C(O)CCC2CN3CCc4c([nH]c5ccccc45)C3CC21.Cl (centres undefined),inactive,inactive,inactive
COCC#Cc1cnc2c(c1)C(=O)N([C@H](C)CO)C[C@H](C)[C@H](CN(C)C(=O)Nc1ccccc1OC)O2,inactive,inactive,inactive
CN(C)S(=O)(=O)N1Cc2nnn(C)c2[C@H](COCC2CC2)C1,inactive,inactive,inactive
C[C@@H]1CN([C@@H](C)CO)C(=O)c2cc(-c3ccc(C(=O)N(C)C)cc3)cnc2O[C@@H]1CN(C)C(=O)CN(C)C,inactive,inactive,inactive
CO[C@H]1CN(C)C(=O)c2cc(NS(=O)(=O)CC(F)(F)F)ccc2OC[C@H](C)N(Cc2ccccn2)C[C@H]1C,inactive,inactive,inactive
C[C@H](CO)N1C[C@H](C)[C@H](CN(C)Cc2ccc(C(F)(F)F)cc2)Oc2ccc(NC(=O)Nc3ccc4c(c3)OCO4)cc2CC1=O,inactive,inactive,inactive
COc1cc(OC)cc(C(=O)Nc2nc(-c3ccc4c(c3)CCN4C(=O)CN3CCOCC3)cs2)c1,inactive,inactive,inactive
C[C@@H]1CN([C@H](C)CO)S(=O)(=O)c2ccc(C#Cc3cccc(F)c3)cc2O[C@H]1CN(C)C(=O)CN1CCOCC1,inactive,inactive,inactive
COc1ccc(NC(=O)Nc2cccc3c2O[C@H](CN(C)Cc2ccc(Oc4ccccc4)cc2)[C@@H](C)CN([C@@H](C)CO)C3=O)cc1,active,inactive,inactive
Nc1nc(=O)c2nc(CNc3ccc(C(=O)NC(CCC(=O)O)C(=O)O)cc3)cnc2[nH]1 (centres undefined),inactive,inactive,inactive
C[C@@H]1CN([C@H](C)CO)C(=O)Cc2cc(NS(=O)(=O)c3cccs3)ccc2O[C@@H]1CN(C)Cc1ccc(Cl)c(Cl)c1,active,inactive,inactive
C[C@@H]1CN([C@H](C)CO)C(=O)CCCn2cc(nn2)CO[C@@H]1CN(C)S(=O)(=O)c1ccc(Oc2ccccc2)nc1,inactive,inactive,inactive
C=CCN1C[C@H](C(=O)O)CC1=O,inactive,inactive,inactive
C[C@@H]1CCCCO[C@H](CN(C)C(=O)Nc2ccc(F)cc2)[C@@H](C)CN([C@@H](C)CO)C(=O)c2cc(NC(=O)c3ccccc3)ccc2O1,inactive,inactive,inactive
C[C@@H]1CCCCO[C@@H](CN(C)Cc2ccc(C(F)(F)F)cc2)[C@@H](C)CN([C@H](C)CO)C(=O)c2cc(NC(=O)Nc3ccc4c(c3)OCO4)ccc2O1,inactive,inactive,inactive
CC(C)NC(=O)Nc1ccc2c(c1)C(=O)N([C@@H](C)CO)C[C@@H](C)[C@@H](CN(C)S(=O)(=O)c1ccc(Cl)cc1)O2,inactive,inactive,inactive
COc1ccc(S(=O)(=O)Nc2ccc3c(c2)C(=O)N([C@H](C)CO)C[C@H](C)[C@H](CN(C)C(=O)Nc2c(C)noc2C)OCCCC[C@H](C)O3)cc1,inactive,inactive,inactive
CN1CCO[C@H]2CCN(C(=O)c3ccn(C)n3)C[C@H]21,inactive,inactive,inactive
Cc1ccc(S(=O)(=O)N(C)C[C@H]2OCCCC[C@H](C)Oc3ccc(NC(=O)Nc4ccccc4)cc3C(=O)N([C@@H](C)CO)C[C@@H]2C)cc1,inactive,inactive,inactive

SMILES,cytotoxicity call (HSkMC),cytotoxicity call (HepG2),growth inhibition call (S. aureus RN4220)
Cc1noc(C)c1S(=O)(=O)Nc1ccc2c(c1)C(=O)N([C@@H](C)CO)C[C@H](C)[C@@H](CN(C)C(=O)Nc1ccc(F)cc1)OCCCC[C@H](C)O2,inactive,inactive,inactive
COc1ccc(CN(C)C[C@@H]2Oc3c(NC(=O)c4cnccn4)cccc3C(=O)N([C@H](C)CO)C[C@H]2C)cc1,inactive,inactive,inactive
CC(C)NC(=O)N(C)C[C@H]1Oc2ccc(NS(=O)(=O)c3cccs3)cc2CC(=O)N([C@@H](C)CO)C[C@H]1C,inactive,inactive,inactive
C[C@@H]1CN([C@H](C)CO)C(=O)c2cc(NS(C)(=O)=O)ccc2O[C@@H](C)CCCCO[C@H]1CN(C)S(=O)(=O)c1ccc(F)cc1,inactive,inactive,inactive
CCCN(C)C[C@H]1OCCCC[C@H](C)Oc2ccc(NC(=O)C3CCCCC3)cc2C(=O)N([C@@H](C)CO)C[C@H]1C,inactive,inactive,inactive
c1ccc(CCN2CCNCC2)nc1,inactive,inactive,inactive
COc1ccc(S(=O)(=O)Nc2ccc3c(c2)C(=O)N([C@@H](C)CO)C[C@@H](C)[C@@H](CN(C)C(=O)Nc2c(C)noc2C)OCCCC[C@@H](C)O3)cc1,inactive,inactive,inactive
COCCN1C[C@H](C(=O)O)CC1=O,inactive,inactive,inactive
CNC[C@@H]1Oc2cc(C#CC(C)(C)O)ccc2S(=O)(=O)N([C@@H](C)CO)C[C@@H]1C,inactive,inactive,inactive
O=C(O)Cc1cc(I)c(Oc2ccc(O)c(I)c2)c(I)c1,inactive,inactive,inactive
Cc1noc(C)c1S(=O)(=O)Nc1ccc2c(c1)C(=O)N([C@H](C)CO)C[C@H](C)[C@@H](CN(C)C(=O)Nc1ccc(F)cc1)OCCCC[C@H](C)O2,inactive,inactive,inactive
Cc1ccc(S(=O)(=O)Nc2ccc3c(c2)C(=O)N([C@H](C)CO)C[C@H](C)[C@@H](CN(C)CC2CC2)O3)cc1,inactive,inactive,inactive
O=C(C[C@H]1C[C@@H]2c3cc(NC(=O)NC4CCCC4)ccc3O[C@@H]2[C@@H](CO)O1)NCc1ccc2c(c1)OCO2,inactive,inactive,inactive
C[C@H]1CCCCO[C@H](CN(C)C(=O)c2ccccc2)[C@@H](C)CN([C@@H](C)CO)C(=O)c2cc(NC(=O)Cc3ccccc3)ccc2O1,inactive,inactive,inactive
CN1C(=O)c2cc(NC(=O)C3CCCC3)ccc2OC[C@H]2O[C@@H](CC(=O)NCCc3ccncc3)CC[C@H]21,inactive,inactive,inactive
C[C@H]1CCCCO[C@H](CN(C)C(=O)CCCN(C)C)[C@@H](C)CN([C@@H](C)CO)C(=O)c2cc(N(C)C)ccc2O1,inactive,inactive,inactive
CCNC(=O)C[C@H]1CC[C@@H](NC(=O)C2CC2)[C@H](CO)O1,inactive,inactive,inactive
C[C@@H]1CN([C@@H](C)CO)C(=O)c2cccc(NC(=O)c3cnccn3)c2O[C@H]1CN(C)C(=O)Nc1ccc(F)cc1,inactive,inactive,inactive
Cc1ccc(S(=O)(=O)N(C)C[C@@H]2Oc3ccc(N(C)C)cc3CC(=O)N([C@H](C)CO)C[C@H]2C)cc1,inactive,inactive,inactive
CCOc1ccc2nc(C34CC5CC(CC(C5)C3)C4)ccc2c1,inactive,inactive,inactive

SMILES,cytotoxicity call (HSkMC),cytotoxicity call (HepG2),growth inhibition call (S. aureus RN4220)
Cc1cn(CCC(=O)O)c(=O)[nH]c1=O,inactive,inactive,inactive
NCC[C@H]1CC[C@@H](NC(=O)Nc2ccc(F)cc2)[C@@H](CO)O1,inactive,inactive,inactive
O=C(C[C@H]1CC[C@@H]2[C@H](COC[C@H](O)CN2C(=O)c2ccccn2)O1)NC1CCC1,inactive,inactive,inactive
COc1ccc(S(=O)(=O)Nc2ccc3c(c2)C(=O)N([C@H](C)CO)C[C@H](C)[C@@H](CN(C)Cc2ccc(Oc4ccccc4)cc2)O3)cc1,active,active,inactive
CCOc1ccc(C(C)(C)N)cc1,inactive,inactive,inactive
CC(=O)N[C@@H]1CC[C@H](CCNC(=O)C2CC2)O[C@@H]1CO,inactive,inactive,inactive
C[C@@H]1CN([C@H](C)CO)C(=O)c2cccc(NC(=O)c3ccc(-c4nccs4)cc3)c2O[C@H]1CN(C)Cc1ccccc1,inactive,inactive,inactive
O=C1O[C@H](CO)[C@@H](O)[C@H](O)[C@H]1O,inactive,inactive,inactive
O=C(CCCCC(=O)N/N=C/[C@H](O)[C@@H](O)[C@H](O)[C@H](O)CO[C@H]1O[C@H](CO)[C@H](O)[C@H](O)[C@H]1O)NO,inactive,inactive,inactive
N#Cc1ccc(C(c2ccc(C#N)cc2)n2cncn2)cc1,inactive,inactive,inactive
C[C@H]1CN([C@@H](C)CO)C(=O)c2cc(NC(=O)C3CCCCC3)ccc2O[C@@H]1CN(C)C(=O)Nc1cccc2ccccc12,inactive,inactive,inactive
COCCOC(=O)N1C(=O)[C@@]2(c3cc(C#Cc4ccc(OC)cc4)ccc31)[C@H](c1ccc(O)cc1)N1[C@H](c3ccccc3)[C@H](c3ccccc3)OC(=O)[C@H]1[C@@H]2C(=O)N1CCc2cc(OC)c(OC)cc2C1,inactive,inactive,inactive
C[C@H]1CN([C@@H](C)CO)C(=O)Cc2cc(NC(=O)C3CC3)ccc2O[C@H]1CN(C)S(=O)(=O)c1cn(C)cn1,inactive,inactive,inactive
O=c1c(-c2ccc(O)cc2)coc2c([C@H]3O[C@H](CO)[C@@H](O)[C@H](O)[C@H]3O)c(O)ccc12,inactive,inactive,inactive
CCO/C(O)=C1/C(=O)CN(C)C1=O,inactive,inactive,inactive
C[C@H]1CN([C@@H](C)CO)C(=O)Cc2cc(NC(=O)c3ccncc3)ccc2O[C@H]1CN(C)Cc1ccncc1,inactive,inactive,inactive
C[C@@H]1CCCCO[C@@H](CN(C)C(=O)Nc2ccc3c(c2)OCO3)[C@H](C)CN([C@@H](C)CO)C(=O)c2cc(NS(=O)(=O)c3ccc(F)cc3)ccc2O1,inactive,inactive,inactive
C[C@H](NC(=O)C[C@H]1C=C[C@H](NC(=O)CN2CCOCC2)[C@@H](CO)O1)c1ccccc1,inactive,inactive,inactive
